{"source": "the BET-seq Pho4 binding data (Le et al. 2018)", "note": "This is one part of the list. The energies were worked out here from pooled read counts, against the library average; single values are noisy.", "data": [{"biological_target": "T1, Pho4 (S. cerevisiae) (UniProt P07270)", "T1 sequence": "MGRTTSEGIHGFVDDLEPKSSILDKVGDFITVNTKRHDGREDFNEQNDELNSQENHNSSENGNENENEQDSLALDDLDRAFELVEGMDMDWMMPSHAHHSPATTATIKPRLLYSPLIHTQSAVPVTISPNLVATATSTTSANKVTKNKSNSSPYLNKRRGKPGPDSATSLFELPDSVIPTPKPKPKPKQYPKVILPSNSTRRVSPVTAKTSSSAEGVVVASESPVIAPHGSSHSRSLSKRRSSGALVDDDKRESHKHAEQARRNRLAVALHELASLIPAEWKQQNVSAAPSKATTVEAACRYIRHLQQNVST", "assay": "relative binding free energy (BET-seq); higher = weaker binding", "conditions": "reference: library average", "units": {"relative binding free energy": "kcal/mol"}, "values": [{"sequence": "GATGACACGTGGGTAT", "relative binding free energy": 0.03}, {"sequence": "GGTCGCACGTGTTGCG", "relative binding free energy": 0.05}, {"sequence": "GGATGCACGTGCAGAG", "relative binding free energy": 0.1}, {"sequence": "GAGGACACGTGCTAGG", "relative binding free energy": 0.09}, {"sequence": "AGGGTCACGTGAGAAG", "relative binding free energy": 0.42}, {"sequence": "TGTGGCACGTGGACGA", "relative binding free energy": -0.24}, {"sequence": "TGTTACACGTGGGCTT", "relative binding free energy": -0.14}, {"sequence": "GGTGACACGTGATAGC", "relative binding free energy": 0.2}, {"sequence": "GTTGTCACGTGATTGG", "relative binding free energy": 0.15}, {"sequence": "GGTATCACGTGACGGG", "relative binding free energy": 0.39}, {"sequence": "TATAGCACGTGGTCTA", "relative binding free energy": -0.13}, {"sequence": "AAATGCACGTGGGGTG", "relative binding free energy": -0.22}, {"sequence": "TGAATCACGTGCAGGT", "relative binding free energy": 0.15}, {"sequence": "TTAAACACGTGGGAAT", "relative binding free energy": -0.07}, {"sequence": "GATAACACGTGTTGTA", "relative binding free energy": -0.11}, {"sequence": "GTGGCCACGTGATTTT", "relative binding free energy": 0.21}, {"sequence": "TGGCGCACGTGGTAGT", "relative binding free energy": -0.14}, {"sequence": "AAAGTCACGTGAGGGT", "relative binding free energy": 0.4}, {"sequence": "AGAGTCACGTGAACGG", "relative binding free energy": 0.36}, {"sequence": "TGGGACACGTGGACTG", "relative binding free energy": -0.04}, {"sequence": "TTCGGCACGTGTTAGC", "relative binding free energy": 0.03}, {"sequence": "GAGAACACGTGTGGGG", "relative binding free energy": 0.07}, {"sequence": "GTATGCACGTGTTTGG", "relative binding free energy": -0.02}, {"sequence": "GAACGCACGTGTAGTT", "relative binding free energy": 0.07}, {"sequence": "TAGTACACGTGTGATG", "relative binding free energy": 0.14}, {"sequence": "GTGCTCACGTGTAGGT", "relative binding free energy": 0.07}, {"sequence": "TTTATCACGTGTCCGT", "relative binding free energy": 0.09}, {"sequence": "GTGAGCACGTGATGCG", "relative binding free energy": -0.08}, {"sequence": "CTTGTCACGTGAGCTT", "relative binding free energy": 0.33}, {"sequence": "CGTTTCACGTGGGGCT", "relative binding free energy": 0.11}, {"sequence": "GGTCTCACGTGTATTG", "relative binding free energy": 0.19}, {"sequence": "ATGTTCACGTGGTGGG", "relative binding free energy": 0.2}, {"sequence": "CATGACACGTGGTGTG", "relative binding free energy": -0.08}, {"sequence": "GTGATCACGTGGTTTA", "relative binding free energy": -0.05}, {"sequence": "CTGGCCACGTGGTGGA", "relative binding free energy": -0.14}, {"sequence": "TTTTCCACGTGGGTGT", "relative binding free energy": -0.14}, {"sequence": "ATTTGCACGTGGGAAT", "relative binding free energy": 0.03}, {"sequence": "GGGAACACGTGAAGTT", "relative binding free energy": 0.47}, {"sequence": "AATGACACGTGGTGTC", "relative binding free energy": 0.08}, {"sequence": "GGGGTCACGTGTCGTT", "relative binding free energy": 0.2}, {"sequence": "AGTAGCACGTGGTGGC", "relative binding free energy": -0.2}, {"sequence": "TGCTACACGTGCGGTT", "relative binding free energy": 0.13}, {"sequence": "TTCTTCACGTGTTGAT", "relative binding free energy": 0.18}, {"sequence": "GGTTTCACGTGTTCTC", "relative binding free energy": 0.31}, {"sequence": "ACTGTCACGTGGTCGT", "relative binding free energy": 0.05}, {"sequence": "GGGGGCACGTGTGAAC", "relative binding free energy": 0.05}, {"sequence": "GCGAGCACGTGTGGAG", "relative binding free energy": 0.01}, {"sequence": "ATTGGCACGTGGGAGT", "relative binding free energy": -0.17}, {"sequence": "AATATCACGTGGGGGT", "relative binding free energy": -0.04}, {"sequence": "GTTAGCACGTGGTCGT", "relative binding free energy": -0.06}, {"sequence": "GTGGACACGTGTTAAG", "relative binding free energy": 0.04}, {"sequence": "AGTAACACGTGTGGGA", "relative binding free energy": 0.11}, {"sequence": "GGGGCCACGTGTCGGG", "relative binding free energy": 0}, {"sequence": "GTTGTCACGTGTTAGC", "relative binding free energy": 0.14}, {"sequence": "TAGGACACGTGGACGT", "relative binding free energy": -0.02}, {"sequence": "GTAGACACGTGGTGGG", "relative binding free energy": -0.01}, {"sequence": "GTGTGCACGTGATTGT", "relative binding free energy": 0.18}, {"sequence": "GTATGCACGTGGTGTA", "relative binding free energy": -0.1}, {"sequence": "AGGGGCACGTGAGTTC", "relative binding free energy": 0.16}, {"sequence": "TTTGGCACGTGGACAA", "relative binding free energy": 0}, {"sequence": "TGATTCACGTGATTAT", "relative binding free energy": 0.24}, {"sequence": "TGTCGCACGTGCGTTT", "relative binding free energy": -0.14}, {"sequence": "CATTGCACGTGTGGTA", "relative binding free energy": 0.08}, {"sequence": "TTGGGCACGTGTATCA", "relative binding free energy": -0.03}, {"sequence": "CTGTACACGTGAGGCG", "relative binding free energy": 0.39}, {"sequence": "GAAGGCACGTGTTTAT", "relative binding free energy": -0.06}, {"sequence": "GTATTCACGTGATTGG", "relative binding free energy": 0.35}, {"sequence": "GGTGACACGTGGTATA", "relative binding free energy": -0.13}, {"sequence": "GATATCACGTGTGGGG", "relative binding free energy": 0.17}, {"sequence": "TGTCTCACGTGGCGGG", "relative binding free energy": 0.2}, {"sequence": "TAGATCACGTGGCGGG", "relative binding free energy": 0.06}, {"sequence": "GGCGGCACGTGTGCGT", "relative binding free energy": -0.03}, {"sequence": "AGAGGCACGTGCATTG", "relative binding free energy": -0.13}, {"sequence": "TTCGTCACGTGCGAGT", "relative binding free energy": 0.03}, {"sequence": "TGTGACACGTGTATCA", "relative binding free energy": 0.09}, {"sequence": "TTGTGCACGTGGTGTC", "relative binding free energy": -0.04}, {"sequence": "TCTGTCACGTGAGTTT", "relative binding free energy": 0.28}, {"sequence": "GGGCGCACGTGAGGGG", "relative binding free energy": 0.16}, {"sequence": "TAGAACACGTGTGGTA", "relative binding free energy": 0.05}, {"sequence": "CGTATCACGTGGGTCA", "relative binding free energy": 0.07}, {"sequence": "TGGTGCACGTGATTAA", "relative binding free energy": 0}, {"sequence": "TATAGCACGTGGTGTC", "relative binding free energy": -0.15}, {"sequence": "TGGAGCACGTGAGCTA", "relative binding free energy": 0.24}, {"sequence": "TATGGCACGTGGACGG", "relative binding free energy": 0.03}, {"sequence": "ATATTCACGTGTGTTA", "relative binding free energy": 0.29}, {"sequence": "AGAATCACGTGGGCTG", "relative binding free energy": 0.11}, {"sequence": "TGAGGCACGTGTTATT", "relative binding free energy": -0.12}, {"sequence": "CTATGCACGTGTTGGA", "relative binding free energy": 0.07}, {"sequence": "CAGTGCACGTGTTTGT", "relative binding free energy": -0.01}, {"sequence": "GAAGGCACGTGGCGCG", "relative binding free energy": -0.17}, {"sequence": "TGCGGCACGTGGGTTG", "relative binding free energy": -0.11}, {"sequence": "ATGAGCACGTGTTGTG", "relative binding free energy": -0.08}, {"sequence": "ACGTTCACGTGTTTGT", "relative binding free energy": 0.23}, {"sequence": "TCGGGCACGTGACGGA", "relative binding free energy": 0.12}, {"sequence": "TGTTACACGTGGATTT", "relative binding free energy": 0.25}, {"sequence": "ATATTCACGTGTGTTG", "relative binding free energy": 0.23}, {"sequence": "ATTTGCACGTGCGGCG", "relative binding free energy": -0.1}, {"sequence": "GTCAACACGTGTGATG", "relative binding free energy": 0.22}, {"sequence": "CGTTGCACGTGGTGCG", "relative binding free energy": -0.19}, {"sequence": "TATGTCACGTGGCATG", "relative binding free energy": -0.17}, {"sequence": "TTGGTCACGTGTGAGC", "relative binding free energy": 0.24}, {"sequence": "ATCGGCACGTGTAAGT", "relative binding free energy": 0.03}, {"sequence": "GCGGACACGTGGTATG", "relative binding free energy": -0.05}, {"sequence": "GGTCTCACGTGGAGAT", "relative binding free energy": 0.31}, {"sequence": "AGGTGCACGTGGTCAG", "relative binding free energy": -0.32}, {"sequence": "ATAAACACGTGGTATT", "relative binding free energy": -0.15}, {"sequence": "GTTGGCACGTGGACCG", "relative binding free energy": 0.02}, {"sequence": "TTTCCCACGTGTTGGG", "relative binding free energy": -0.13}, {"sequence": "TGGTACACGTGATCTG", "relative binding free energy": 0.12}, {"sequence": "TAGATCACGTGATGGA", "relative binding free energy": 0.26}, {"sequence": "CTTGGCACGTGTGAAA", "relative binding free energy": 0}, {"sequence": "CTTTTCACGTGAGGTT", "relative binding free energy": 0.37}, {"sequence": "GCGTTCACGTGCTTTT", "relative binding free energy": 0.36}, {"sequence": "GTGCTCACGTGGCAGG", "relative binding free energy": 0.17}, {"sequence": "ACTAACACGTGGGGTT", "relative binding free energy": -0.17}, {"sequence": "ATAGGCACGTGAGGTG", "relative binding free energy": 0.15}, {"sequence": "TTGATCACGTGGGGTC", "relative binding free energy": -0.01}, {"sequence": "TAGATCACGTGCATGT", "relative binding free energy": 0.2}, {"sequence": "GATTGCACGTGATTTG", "relative binding free energy": 0.16}, {"sequence": "ACTATCACGTGGGTGA", "relative binding free energy": 0.03}, {"sequence": "TGCCTCACGTGGTGTG", "relative binding free energy": -0.1}, {"sequence": "AGATGCACGTGGGTGG", "relative binding free energy": -0.17}, {"sequence": "GGACACACGTGGTGTG", "relative binding free energy": -0.14}, {"sequence": "AGTCGCACGTGTATTG", "relative binding free energy": -0.06}, {"sequence": "TGGACCACGTGGAAGG", "relative binding free energy": 0.15}, {"sequence": "CGTGCCACGTGGTTGA", "relative binding free energy": -0.15}, {"sequence": "GTTTACACGTGGGTCG", "relative binding free energy": 0.12}, {"sequence": "TGGGGCACGTGAGTCG", "relative binding free energy": 0.19}, {"sequence": "ATGTTCACGTGATCGG", "relative binding free energy": 0.07}, {"sequence": "TTTAGCACGTGGTCGC", "relative binding free energy": -0.16}, {"sequence": "TAGCTCACGTGGAGGT", "relative binding free energy": 0.33}, {"sequence": "GGTAACACGTGTTTGT", "relative binding free energy": 0.01}, {"sequence": "TTGGGCACGTGTCCTT", "relative binding free energy": 0.05}, {"sequence": "GATTGCACGTGATAGG", "relative binding free energy": 0.14}, {"sequence": "CTATGCACGTGGATGT", "relative binding free energy": 0}, {"sequence": "GTGAGCACGTGCACGG", "relative binding free energy": -0.04}, {"sequence": "CAAGGCACGTGGTGTG", "relative binding free energy": -0.23}, {"sequence": "AGGTGCACGTGTGAGT", "relative binding free energy": 0.14}, {"sequence": "CGCGGCACGTGGGGAA", "relative binding free energy": -0.1}, {"sequence": "AGTTGCACGTGGCGCG", "relative binding free energy": -0.03}, {"sequence": "AATATCACGTGATTTG", "relative binding free energy": 0.29}, {"sequence": "TACATCACGTGGAGTG", "relative binding free energy": 0.16}, {"sequence": "GTGTACACGTGGTCAT", "relative binding free energy": -0.02}, {"sequence": "ATGATCACGTGTAGAG", "relative binding free energy": 0.16}, {"sequence": "GATTGCACGTGGCTTT", "relative binding free energy": -0.03}, {"sequence": "GGCATCACGTGTGTGC", "relative binding free energy": 0.19}]}]}
